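Step 1: Grow cells in 96-well plates. Step 2: Expose to compound for 48 hours at 5 concentrations. Step 3: Interpolate endpoints linearly; if unreached, use highest concentration. GI50 marks 50% less growth. TGI marks complete inhibition of growth.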
test system: NCI-H322M lung; experiment: inhibition of tumour cell growth, NCI panel, 48 h

Point of comparison: CCOc1cc2c(cc1O)CC[C@@H]1[C@@H]2CC[C@]2(C)C(N)CC[C@@H]12 (stereo partly specified), TGI 21.2 µM. Against it:
- CC1=C(C(=O)N(C(C)C)C(C)C)CC(C(=O)N(C(C)C)C(C)C)=C(C)N1 — higher, > 100 µM
- Cc1c2c(Cl)c3c(c(Cl)c2c(C)c2c(Cl)c4c(c(Cl)c12)C(c1ccccc1)(c1ccccc1)C4(c1ccccc1)c1ccccc1)C(c1ccccc1)(c1ccccc1)C3(c1ccccc1)c1ccccc1 — higher, > 100 µM
- Cc1ccc(C)n1-c1ccccc1C1C=CN(C(=O)OC(C)(C)C)C=C1 — higher, > 100 µM
- Nc1c([N+](=O)[O-])cc2c3c(cccc13)CC2 — higher, > 100 µM
- COc1ccc(S(=O)(=O)N/N=C/c2cc(I)cc([N+](=O)[O-])c2O)cc1OC — higher, > 100 µM
- C1CSC(=[N+]2CC[N+](=C3SCCS3)CC2)S1 — higher, > 100 µM
- O=C(c1ccccc1)[C@@H]1C[C@H](Sc2ccccc2)c2cc(Cl)ccc2N1 — higher, > 100 µM
- N#Cc1ccc(C(=O)/C=C/c2ccc(O)c(O)c2)cc1 — within 1.5-fold, 29.8 µM
- OC(c1cc(-c2ccc(Cl)cc2)nc2ccccc12)C1CCCCN1 (stereo unspecified) — 3.3-fold lower, 6.46 µM
- CSc1sc(=S)sc1C(=O)N(C)c1ccccc1 — higher, > 100 µM
- COc1cc(C(O)C(=O)c2nc3ccc([N+](=O)[O-])cc3[nH]c2=O)ccc1O (stereo unspecified) — higher, > 100 µM
- Cc1cc(=O)[nH]c2cc3c(c4c(n3Cc3ccc(Cl)cc3Cl)CC(C)(C)CC4=O)c(O)c12 — higher, > 100 µM
- O=C(Cc1ccc(Cl)cc1)Nc1ccc2oc(-c3ccccc3)nc2c1 — higher, > 100 µM
- COC(=O)C(Cc1ccc(Oc2cc(CC(NC(=O)c3ccccc3)C(=O)OC)ccc2OC)cc1)NC(=O)c1ccccc1 (stereo unspecified) — 3.8-fold higher, 79.8 µM
- CC(C)(C)C(=O)CP(=O)(O)O — higher, > 100 µM
- COc1ccc2c(c1)-c1[nH]c3ccc(OC)cc3c1CC2 — within 1.5-fold, 31.1 µM
- Oc1ccc(Cc2nccc3cc(O)c(O)cc23)cc1O — higher, > 100 µM
- O=C(O)c1cc(-c2ccncc2)nc2ccccc12 — higher, > 100 µM
- COc1ccccc1N1CCN(CCc2c[nH]c3cc4c(cc23)OCO4)CC1 — higher, > 100 µM
- CC1=NN(C(=O)CC(=O)NC(=O)CC(=O)Nc2ccccc2F)C(=O)C1N=Nc1ccc([N+](=O)[O-])cc1 (stereo unspecified) — higher, > 100 µM
- COc1ccc(OC2OC(COC(c3ccccc3)(c3ccc(OC)cc3)c3ccc(OC)cc3)C(O)C(O)C2O)cc1 (stereo unspecified) — within 1.5-fold, 19.3 µM
- Oc1ccccc1C=Nc1nc(SCc2ccccc2)nc2[nH]ncc12 — higher, > 100 µM
- O=C(O)CCSC(=O)Nc1ccccc1F — higher, > 100 µM
- C#C[C@]1(O)CC[C@H]2[C@@H]3CCC4=C/C(=N/NC(=O)c5cccc6cc7ccccc7nc56)CC[C@@H]4[C@H]3CC[C@@]21CC — higher, > 100 µM
- COc1cccc2c1C(=O)c1c(O)c3c(c(O)c1C2=O)C[C@@](O)(C(=O)CO)C[C@@H]3O[C@H]1C[C@H](N)[C@@H](O)[C@H](C)O1 — 2.1-fold lower, 10 µM
- CC(C)(C)NCC(O)c1ccc(O)c(CO)n1 (stereo unspecified) — higher, > 100 µM
- Cc1cc(NS(=O)(=O)c2ccc(NC(=O)c3ccc(Cl)c4c(Nc5ccc(S(=O)(=O)N=C(N)N)cc5)c5ccccc5nc34)cc2)no1 — higher, > 100 µM
- CN(C)CCCNc1c(C#N)[n+]([O-])c2cc(Cl)ccc2[n+]1[O-] — higher, > 92.3 µM
- CCN(C(C)=O)c1cnc(/C=N/NC(N)=S)c2ccccc12 — within 1.5-fold, 30.9 µM
- Cc1cc(NCc2cc(Nc3ccnc4cc(Cl)ccc34)ccc2F)nc(N2CCN(C)CC2)n1 — 2.8-fold lower, 7.63 µM
- COc1ccc(N2C(=O)C(C)SC2c2cc3cc(Br)ccc3nc2Cl)cc1 (stereo unspecified) — higher, > 100 µM
- CC(C)C(Sc1nc(-c2ccccc2)c(-c2ccccc2)[nH]1)C(=O)NN (stereo unspecified) — higher, > 100 µM
- COc1ccccc1C1c2cc3c(cc2OC(O)(CO)C1C(=O)O)OCO3 (stereo unspecified) (tested in a mixture with another compound) — higher, > 100 µM
- COC(=O)C1=C(C(=O)OC)SC(=C(Cl)C(=S)Nc2ccccc2O)S1 — higher, > 50 µM
- CCN(CC)c1c(-c2c(N(CC)CC)c(OC(C)=O)c3sccn3c2=O)c(=O)n2ccsc2c1OC(C)=O — higher, > 100 µM
- Nc1ncnc2c1ncn2C1OC(CO)C(O)C(O)C1O (stereo unspecified) — higher, > 100 µM
- Nc1nc(N)c2c(n1)NC(c1ccc(F)cc1)C1CCc3ccccc3C1=N2 (stereo unspecified) — within 1.5-fold, 21.8 µM
- O=C(Nc1ccc2[nH]c(=S)sc2c1)Nc1ccccc1F — higher, > 100 µM
- COc1cccc2c1/c(=C/c1ccc(N(C)C)cc1)c1cc(-c3ccccc3)[n+](C)n12 — 14-fold lower, 1.51 µM
- NC1CC(Cl)c2c(Cl)sc(Cl)c21 (stereo unspecified) — higher, > 100 µM
- COc1ccc(C(=O)/C=C/c2ccc3c(c2)OCO3)c(OCc2ccccc2)c1 — higher, > 100 µM
- CCCCCCCCCCCCCCCCOCC(CP(=O)([O-])OCC[n+]1ccccc1)OC (stereo unspecified) — 1.6-fold higher, 33.5 µM
- OC(CNCC1CCCO1)Cn1c2ccc(Cl)cc2c2cc(Cl)ccc21 (stereo unspecified) — 3-fold lower, 7.17 µM
- O=C1CCCC(=O)N1CCc1c[nH]c2ccccc12 — higher, > 100 µM
- COC(=O)c1cc2cc3c(c(O)c2c(=O)o1)O[C@@]1(Oc2c(O)c4c(c(O)c2[C@H]1OC1CC(OC)C(O)C(C)O1)C(=O)C=C(OC)C4=O)[C@H](O)C3 (stereo partly specified) — 1.7-fold lower, 12.8 µM

Point of comparison: CC[C@@]1(OC(=O)CN)C(=O)OCc2c1cc1n(c2=O)Cc2cc3c(N)cccc3nc2-1, GI50 27.8 nM. Against it:
- Cc1cc(=O)[nH]c2cc3c(c4c(n3Cc3ccc(Cl)cc3Cl)CC(C)(C)CC4=O)c(O)c12 — higher, > 100000 nM
- COc1ccccc1N1CCN(CCc2c[nH]c3cc4c(cc23)OCO4)CC1 — 840-fold higher, 23300 nM
- Oc1ccccc1C=Nc1nc(SCc2ccccc2)nc2[nH]ncc12 — 120-fold higher, 3390 nM
- COc1cccc2c1C(=O)c1c(O)c3c(c(O)c1C2=O)C[C@@](O)(C(=O)CO)C[C@@H]3O[C@H]1C[C@H](N)[C@@H](O)[C@H](C)O1 — 51-fold higher, 1420 nM
- Cc1cc(NCc2cc(Nc3ccnc4cc(Cl)ccc34)ccc2F)nc(N2CCN(C)CC2)n1 — 87-fold higher, 2410 nM
- COC(=O)C1=C(C(=O)OC)SC(=C(Cl)C(=S)Nc2ccccc2O)S1 — 25-fold higher, 682 nM
- Nc1nc(N)c2c(n1)NC(c1ccc(F)cc1)C1CCc3ccccc3C1=N2 (stereo unspecified) — 350-fold higher, 9630 nM
- O=C(Nc1ccc2[nH]c(=S)sc2c1)Nc1ccccc1F — 840-fold higher, 23300 nM
- OC(CNCC1CCCO1)Cn1c2ccc(Cl)cc2c2cc(Cl)ccc21 (stereo unspecified) — 90-fold higher, 2500 nM

Reference: PubChem BioAssay (NCI)
